# The whole screen tested about 420,000 compounds, of which about 50,000 (12%) were called active. Inconclusive results, whose numbers are uncertain, are shown with a selection of clear calls. Calls come from the whole dose curve; as a rule, active = well fitted inhibition curve with a large enough effect; inconclusive = small, poorly fitted or top-dose-only effect; inactive = flat fitted curve, though single readings scatter. Potencies of inconclusive entries are left out as doubtful fits.
# Assay: qHTS for Inhibitors of human tyrosyl-DNA phosphodiesterase 1 (TDP1): qHTS in cells in presence of CPT; note: nearly all actives have a fitted effect of over 55% in size
# Conditions: chicken DT40 Tdp1-/-;hTDP1 cells + 20 nM CPT, ATP luminescence, 48 h; activity change, negative = growth inhibition: at 46.2 µM (top of the series) unless noted
# How it was run: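 Cell growth measured by CellTiter-Glo luminescence after a minimum 48 h, 37 C compound exposure with 20 nM CPT in Tdp1-knockout DT40 cells stably expressing hTDP1, seeded 400/well; qHTS titration format.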
# % is set by controls: 0 for no effect and ±100 for the full control effect; potency is the fitted concentration of half-maximal effect; tags give direction and shape of the fitted curve.
SMILES,Potency,"activity change, negative = growth inhibition"
CC(=O)c1ccc(N2CCN(C(=O)c3ccc(-c4ccccc4)cc3)CC2)cc1,"inconclusive [inhibitor, single point]",
CCOc1ccc(/C=C/C(=O)Nc2sc3c(c2C(=O)OC)C(C(=O)OC)CC3)cc1 (stereo not given),active: 9.2 µM,
O=C(Cn1cncc1-c1ccc([N+](=O)[O-])cc1)Nc1ccccc1F,"inconclusive [inhibitor, single point]",
CC(NC(=O)CCCn1cc([N+](=O)[O-])cn1)c1ccccc1 (stereo not given),"inconclusive [inhibitor, full curve, poor fit]",
O=C(O)c1ccc(N2CCCS2(=O)=O)cc1,,inactive: 22.5%
O=C(Cc1ccccc1)N[C@@H]1c2ccccc2CC[C@@H]1OCc1ccccc1,,inactive: -23.1%
COc1ccc(CN2C(=O)c3ccccc3C2=O)cc1C(=O)Nc1ccccc1N1CCOCC1,"inconclusive [inhibitor, partial curve]",
CCOC(C)OCC,,inactive: 0.848%
CCOC(=O)c1cc(C)n(CC2CCC(C(=O)Nc3ccc(C(C)=O)cc3)CC2)c1C (stereo not given),active: 11.6 µM,
CCCCCCc1cc2cc(C(=O)NCc3ccccc3)c(=N)oc2cc1O,"inconclusive [inhibitor, single point]",
COc1cc(C(=O)OCc2cc(=O)n3nc(C4CCCCC4)sc3n2)cc(OC)c1OC,active: 11.6 µM,
CC(C)CN1C(=O)NC(NS(=O)(=O)c2ccc(N)cc2)(C(F)(F)F)C1=O (stereo not given),,inactive: -24.6%
O=C(NCCN1CCN(Cc2ccccc2)CC1)c1cc2c(=O)[nH]c3ccccc3c2s1,"inconclusive [inhibitor, single point]",
COc1ccc(-c2nn(-c3ccccc3)cc2CNC(=O)c2cccc([N+](=O)[O-])c2)cc1,,inactive: 8.64%
CCc1cccc(-n2c(=O)c3cccnc3n2CC(=O)NCc2ccccc2)c1,"inconclusive [inhibitor, single point]",
O=C(c1ccc(Br)cc1)N(Cc1nc2ccccc2c(=O)[nH]1)C1CCCC1,"inconclusive [inhibitor, single point]",
CC(C)(C)NC(=O)C(c1cccs1)N(Cc1cccs1)C(=O)c1ccc(CN2CCOCC2)o1 (stereo not given),"inconclusive [inhibitor, partial curve]",
O=C(c1cc(COc2ccc3ncccc3c2)on1)N1CCCC1,active: 7.31 µM,

SMILES,Potency,"activity change, negative = growth inhibition"
CCCNS(=O)(=O)c1ccc2nc(NC(=O)c3ccc(F)cc3)sc2c1,active: 8.2 µM,
Cn1c(CNC(=O)CNC(=O)Cc2ccc(F)cc2)cc(=O)n(C)c1=O,,inactive: -14.7%
CCN(C1CCCCC1)S(=O)(=O)c1ccc(OC)c(C)c1,active: 14.6 µM,
CN1N=C(N)c2cn(C3OC(COP(=O)(O)O)C(O)C3O)c3ncnc1c23 (stereo not given),"inconclusive [inhibitor, partial curve]",
Cc1c(C(=O)NCc2ccccc2)oc2ccc(S(=O)(=O)N3CCC4(CC3)OCCO4)cc12,"inconclusive [inhibitor, single point]",
CCc1cccc(NC(=O)c2cn3c4c(ccc(Cl)c4c2=O)OC(C)C3)c1 (stereo not given),"inconclusive [inhibitor, single point]",
Cc1ccc(C(=Cc2ccc([N+](=O)[O-])cc2)C(=O)O)cc1,"inconclusive [inhibitor, single point]",
COc1ccc(C2NC(=O)NC(C)=C2C(=O)OC2CCCC(C)C2)cc1 (stereo not given),"inconclusive [inhibitor, partial curve]",
COc1ccc(N2CCN(C(=O)c3cccc(-n4c(C)nc5cccnc54)c3)CC2)cc1,active: 16.4 µM,
CC(=O)N1CCc2cc(S(=O)(=O)NCCC(=O)NC3CCCCCC3)ccc21,,inactive: -22.6%
COc1cc(/C(C)=N\NC(=O)CSc2nc3ccccc3n2C)ccc1O,"inconclusive [inhibitor, single point]",
COC(=O)c1c(NC(=O)Cc2cccs2)sc(C(=O)N2CCCCC2)c1C,"inconclusive [inhibitor, single point]",
COc1cc2cc(CNc3ccccc3)c(=O)n(CC(=O)Nc3ccccc3)c2cc1OC,"inconclusive [inhibitor, single point]",
COc1cc(/C=C(\C#N)C(=O)Nc2ccccn2)ccc1O,,inactive: -0.476%
O=C(CSc1oc(-c2ccccc2)nc1S(=O)(=O)c1ccc(F)cc1)NCC1CCCO1 (stereo not given),"inconclusive [inhibitor, single point]",
O=C(NC12CC3CC(CC(C3)C1)C2)c1cccnc1Cl,,inactive: 1.58%
C#Cc1ccc([C@H]2C=C(C(=O)OCC=C)O[C@@H](OCCCCO)C2)cc1,,inactive: -29.9%
